{"source": "the supplement of paper PMC10126150", "note": "Sequences with one replicate were seen in a single cluster, so their values are uncertain.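 Note: ATP exposure 15 min at 22 °C before imaging.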"}
{"test_system": "ATP", "experiment": "switch fluorescence ratio, 500 uM ATP over buffer (Cy3 cluster intensity, sum of 5 cycles each) (fold (ratio)); higher = stronger signal-on switching upon ATP binding; sequences stand for … in TCGTCGGCAGCGTCAGATGTGTATAAGAGACAGTTTTTTTTTTTTTTTTTTTTTTTTT…TC", "details": "aptamer strand: ATP DNA aptamer (quencher-CACCTGGGGGAGTATTGCGGAGGAAGG + anchor), 100 nM annealed; ATP concentration: 500 uM; one replicate", "in_short": "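Switching-strand clusters labelled with Cy3 on a modified Illumina MiSeq flow-cell were annealed to 100 nM quencher-labelled ATP aptamer, imaged in selection buffer, and re-imaged after 15 min with 500 uM ATP at 22 °C. This was done over five cycles with NaOH stripping and re-annealing in between. The fluorescence ratio is summed target-cycle over summed buffer-cycle Cy3 intensity per cluster, averaged per switch-domain sequence, excluding clusters outside 100-1000 RFU.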"}
{"sequence": "GGACGTCAAC", "switch fluorescence ratio": 1.23}
{"sequence": "GGACGTCTGG", "switch fluorescence ratio": 0.965}
{"sequence": "GGACGTGATG", "switch fluorescence ratio": 0.929}
{"sequence": "GGACTAAGGG", "switch fluorescence ratio": 0.931}
{"sequence": "GGACTAAGTT", "switch fluorescence ratio": 0.991}
{"sequence": "GGACTACAA", "switch fluorescence ratio": 1.02}
{"sequence": "GGACTAGTGT", "switch fluorescence ratio": 0.978}
{"sequence": "GGACTATCCG", "switch fluorescence ratio": 1.02}
{"sequence": "GGACTATTGT", "switch fluorescence ratio": 1}
{"sequence": "GGACTGGCAA", "switch fluorescence ratio": 1.44}
{"sequence": "GGACTGTTAA", "switch fluorescence ratio": 1.05}
{"sequence": "GGACTTAAAA", "switch fluorescence ratio": 0.963}
{"sequence": "GGAGAAACGG", "switch fluorescence ratio": 1.01}
{"sequence": "GGAGAAATT", "switch fluorescence ratio": 1.02}
{"sequence": "GGAGACTGAG", "switch fluorescence ratio": 1.03}
{"sequence": "GGAGATCAGC", "switch fluorescence ratio": 1.03}
{"sequence": "GGAGATGGTT", "switch fluorescence ratio": 1.02}
{"sequence": "GGAGCAGGG", "switch fluorescence ratio": 1.03}
{"sequence": "GGAGCGCCA", "switch fluorescence ratio": 0.991}
{"sequence": "GGAGCGGCAT", "switch fluorescence ratio": 1.12}
{"sequence": "GGAGCTCTGT", "switch fluorescence ratio": 0.967}
{"sequence": "GGAGGAAGCC", "switch fluorescence ratio": 0.956}
{"sequence": "GGAGGACCCA", "switch fluorescence ratio": 0.998}
{"sequence": "GGAGGGTCAT", "switch fluorescence ratio": 1.04}
{"sequence": "GGAGGGTGAA", "switch fluorescence ratio": 1.03}
{"sequence": "GGAGGGTTTC", "switch fluorescence ratio": 1.01}
{"sequence": "GGAGGTATCG", "switch fluorescence ratio": 1.08}
{"sequence": "GGAGGTATTG", "switch fluorescence ratio": 0.969}
{"sequence": "GGAGGTTAGT", "switch fluorescence ratio": 1.02}
{"sequence": "GGAGTAACTG", "switch fluorescence ratio": 1.03}
{"sequence": "GGAGTAGGTG", "switch fluorescence ratio": 0.985}
{"sequence": "GGAGTCAAGG", "switch fluorescence ratio": 1.1}
{"sequence": "GGAGTGATAT", "switch fluorescence ratio": 1.87}
{"sequence": "GGAGTTAGGT", "switch fluorescence ratio": 1.03}
{"sequence": "GGAGTTTTGC", "switch fluorescence ratio": 0.972}
{"sequence": "GGATAACCTG", "switch fluorescence ratio": 1.06}
{"sequence": "GGATAAGAGA", "switch fluorescence ratio": 0.973}
{"sequence": "GGATAAGCGC", "switch fluorescence ratio": 1.03}
{"sequence": "GGATAAGCTC", "switch fluorescence ratio": 0.991}
{"sequence": "GGATAATGAT", "switch fluorescence ratio": 0.986}
{"sequence": "GGATACGTCC", "switch fluorescence ratio": 1.03}
{"sequence": "GGATATATCA", "switch fluorescence ratio": 1.03}
{"sequence": "GGATATCCGG", "switch fluorescence ratio": 0.979}
{"sequence": "GGATATGATA", "switch fluorescence ratio": 0.988}
{"sequence": "GGATATGTAA", "switch fluorescence ratio": 1.01}
{"sequence": "GGATATTTTC", "switch fluorescence ratio": 0.986}
{"sequence": "GGATCAACTC", "switch fluorescence ratio": 1.02}
{"sequence": "GGATCACCAT", "switch fluorescence ratio": 0.982}
{"sequence": "GGATCAGGG", "switch fluorescence ratio": 1.03}
{"sequence": "GGATCAGTGG", "switch fluorescence ratio": 0.986}
{"sequence": "GGATCCCAC", "switch fluorescence ratio": 1.05}
{"sequence": "GGATCCTACT", "switch fluorescence ratio": 0.999}
{"sequence": "GGATCCTATT", "switch fluorescence ratio": 1.01}
{"sequence": "GGATCGGATG", "switch fluorescence ratio": 0.983}
{"sequence": "GGATGAATG", "switch fluorescence ratio": 1.01}
{"sequence": "GGATGATTAG", "switch fluorescence ratio": 1.02}
{"sequence": "GGATGATTCC", "switch fluorescence ratio": 1.05}
{"sequence": "GGATGCAGT", "switch fluorescence ratio": 0.962}
{"sequence": "GGATGCATAC", "switch fluorescence ratio": 1.84}
{"sequence": "GGATGCATTA", "switch fluorescence ratio": 1.04}
{"sequence": "GGATGCCTTG", "switch fluorescence ratio": 0.978}
{"sequence": "GGATGCGCCC", "switch fluorescence ratio": 1.02}
{"sequence": "GGATGCGCCG", "switch fluorescence ratio": 0.93}
{"sequence": "GGATGCTAAA", "switch fluorescence ratio": 1.02}
{"sequence": "GGATGCTAGT", "switch fluorescence ratio": 0.962}
{"sequence": "GGATGCTCCG", "switch fluorescence ratio": 0.968}
{"sequence": "GGATGGCAGC", "switch fluorescence ratio": 0.988}
{"sequence": "GGATGGGTG", "switch fluorescence ratio": 1.01}
{"sequence": "GGATGGTCAA", "switch fluorescence ratio": 1.01}
{"sequence": "GGATGGTCAT", "switch fluorescence ratio": 1.02}
{"sequence": "GGATGTGACG", "switch fluorescence ratio": 1.09}
{"sequence": "GGATGTTTTA", "switch fluorescence ratio": 0.98}
{"sequence": "GGATTAAAAA", "switch fluorescence ratio": 1.01}
{"sequence": "GGATTACACC", "switch fluorescence ratio": 1.02}
{"sequence": "GGATTAGTTG", "switch fluorescence ratio": 0.992}
{"sequence": "GGATTATTTC", "switch fluorescence ratio": 0.983}
{"sequence": "GGATTCAAAT", "switch fluorescence ratio": 1.01}
{"sequence": "GGATTCCCCC", "switch fluorescence ratio": 0.999}
{"sequence": "GGATTGCAAA", "switch fluorescence ratio": 0.928}
{"sequence": "GGATTGCCGG", "switch fluorescence ratio": 0.972}
{"sequence": "GGATTGCTCC", "switch fluorescence ratio": 1.04}
{"sequence": "GGATTGCTGA", "switch fluorescence ratio": 0.994}
{"sequence": "GGATTGGAGA", "switch fluorescence ratio": 0.936}
{"sequence": "GGATTGGTGT", "switch fluorescence ratio": 0.998}
{"sequence": "GGATTTGCGC", "switch fluorescence ratio": 0.95}
{"sequence": "GGCAAAGGCT", "switch fluorescence ratio": 1.02}
{"sequence": "GGCAACTGAG", "switch fluorescence ratio": 1.05}
{"sequence": "GGCAAGGGAT", "switch fluorescence ratio": 0.993}
{"sequence": "GGCAAGTGTA", "switch fluorescence ratio": 1.01}
{"sequence": "GGCAATAGCG", "switch fluorescence ratio": 1.01}
{"sequence": "GGCAATTGAG", "switch fluorescence ratio": 1.06}
{"sequence": "GGCACAGCGA", "switch fluorescence ratio": 1.04}
{"sequence": "GGCACAGCTG", "switch fluorescence ratio": 1.04}
{"sequence": "GGCACATGGT", "switch fluorescence ratio": 0.984}
{"sequence": "GGCACCATGA", "switch fluorescence ratio": 0.999}
{"sequence": "GGCACCTGG", "switch fluorescence ratio": 0.962}
{"sequence": "GGCACGACAT", "switch fluorescence ratio": 1.12}
{"sequence": "GGCACTCCAC", "switch fluorescence ratio": 1.12}
{"sequence": "GGCAGACGAG", "switch fluorescence ratio": 1.02}
{"sequence": "GGCAGATGGG", "switch fluorescence ratio": 1.02}
